Results taken from patent publication US20240309059A1, “PEPTIDE HAVING ANTI-VIRAL ACTIVITY, ANTI-VIRAL AGENT COMPRISING SAID PEPTIDE, AND METHOD FOR PRODUCING SAID ANTI-VIRAL AGENT” (National University Corporation Tokyo Medical and Dental …, priority 2021, published 2024).
Not every detail of the peptide structures is certain; ends, links or a residue may be inferred. Some entries repeat one wording, which the source may state once for all of them. Ends that are not written are not given here.

Key:
[1] = molecular target: receptor binding domain (RBD) in the SARS-COV-2 Omicron (sublineage BA.2) variant (B.1.1.529/BA.2) (Severe acute respiratory syndrome coronavirus 2, UniProt P0DTC2, D405N/E484A/G339D/K417N/N440K/N501Y/Q493R/Q498R/R408S/S371F/S373P/S375F/S477N/T376A/T478K/Y505H)
[2] = molecular target: receptor binding domain (RBD) in the SARS-COV-2 Indian variant (δ type (B.1.617.2)) (Severe acute respiratory syndrome coronavirus 2, UniProt P0DTC2, L452R/T478K)
[3] = molecular target: receptor binding domain (RBD) in the SARS-COV-2 UK variant (B.1.1.7) (Severe acute respiratory syndrome coronavirus 2, UniProt P0DTC2, N501Y)
[4] = tested on: SARS-COV-2 Indian variant (δ type) (B.1.617.2)
[5] = tested on: SARS-COV-2 UK variant (B.1.1.7)
[6] = tested on: SARS-COV-2 Omicron (sublineage BA.1) variant (B.1.1.529/BA.1)
[7] = molecular target: receptor binding domain (RBD) in the SARS-COV-2 Omicron (sublineage BA.1) variant (B.1.1.529/BA.1) (Severe acute respiratory syndrome coronavirus 2, UniProt P0DTC2, E484A/G339D/G446S/G496S/K417N/N440K/N501Y/Q493R/Q498R/S371L/S373P/S375F/S477N/T478K/Y505H)
[8] = molecular target: receptor binding domain (RBD) in wild-type SARS-COV-2 (Severe acute respiratory syndrome coronavirus 2, UniProt P0DTC2)
[9] = molecular target: receptor binding domain (RBD) in the SARS-COV-2 Brazilian variant (P.1) (Severe acute respiratory syndrome coronavirus 2, UniProt P0DTC2, E484K/K417T/N501Y)
[10] = molecular target: receptor binding domain (RBD) in the SARS-COV-2 Indian variant (κ type (B.1.617.1)) (Severe acute respiratory syndrome coronavirus 2, UniProt P0DTC2, E484Q/L452R)
[11] = molecular target: receptor binding domain (RBD) in the SARS-COV-2 South African variant (B.1.351) (Severe acute respiratory syndrome coronavirus 2, UniProt P0DTC2, E484K/K417N/N501Y)

Sequence | binding activity to the receptor binding domain (RBD) [1] | binding activity to the receptor binding domain (RBD) [2] | binding activity to the receptor binding domain (RBD) [3] | antiviral activity (inhibition rate, plaque reduction assay) [4] | antiviral activity (inhibition rate, plaque reduction assay) [5] | antiviral activity (inhibition rate, plaque reduction assay) [6] | binding activity to the receptor binding domain (RBD) [7] | dissociation from the RBD once bound ([8]; washed with a buffer for 3 hours) | binding activity to the receptor binding domain (RBD) [9] | binding activity to the receptor binding domain (RBD) ([8]; result in words (binding rate and degree of dissociation)) | binding activity to the receptor binding domain (RBD) [10] | dissociation from the RBD once bound [3] | IC50 ([5]; read-out: IC50 value, plaque reduction assay, […], VeroE6/TMPRSS2 cells) [nM] | binding activity to the receptor binding domain (RBD) [11]
DKEWILYKIYEIMQRLDEEGHGEASLMVSDLIYEFMKRD [Ce174] | significantly high binding activity | excellent binding activity | excellent binding activity | excellent antiviral activity | excellent antiviral activity | excellent antiviral activity | significantly high binding activity | – | – | – | – | – | – | –
DKEWILQKIYEIMRRLDEEGHAEASMRVSDLIYEFMKKD [Ce9] | – | – | – | – | – | – | – | The same results were obtained | – | – | – | – | – | –
DKLWILQKIYEIMQRLDEEGHGEASLMVSDLIYEFMKRD [Ce173] | significantly high binding activity | excellent binding activity | excellent binding activity | excellent antiviral activity | excellent antiviral activity | excellent antiviral activity | significantly high binding activity | – | – | – | – | – | – | –
DKEWILQKIYEIMRRLDEEGHGEASLRVSDLIYEFMKRD [Ce59] | – | excellent binding activity | excellent binding activity | – | – | – | cannot maintain binding | – | further excellent binding activity | excellent binding activity | excellent binding activity | does not dissociate at all | 0.2 | further excellent binding activity
DKEWILQKIYEIMQRLDEEGHGEASLMVSDLIYEFMKRD [Ce113] | significantly excellent binding activity | excellent binding activity | excellent binding activity | – | – | – | significantly excellent binding activity | – | – | – | – | – | – | –
DKEWILYKIYEIMVRLDEEGHGEASLMVSDLIYEFMKRD [Ce149] | significantly high binding activity | excellent binding activity | excellent binding activity | – | – | – | significantly high binding activity | – | – | – | – | – | – | –
